Data as given in PubChem BioAssay AID488969 (Vanderbilt High Throughput Screening Facility, 2010).
In all, about 110,000 compounds were measured (“z-score”: median about -0.1, highest 2% from about 2 on). The list shows a part of the results. Activity calls are given as the source filed them.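 How the source made its calls: active means z-score in the third read window above 3 or below -3; inactive means the rest.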

biological target: Metabotropic glutamate receptor 8 (Rattus norvegicus) (UniProt P70579); assay: mGluR8 Gi/Go-coupled signaling modulation – cell-based, rat, thallium flux, HTS, primary screen (AID 488969); conditions: HEK293 rat mGluR8, GIRK (G protein-gated inwardly rectifying potassium channel) thallium flux, FluoZin2; at 10 µM; stronger effect = higher value; submaximal glutamate (EC20) added with thallium
Chain of UniProt P70579 (P70579 whole entry, looked up): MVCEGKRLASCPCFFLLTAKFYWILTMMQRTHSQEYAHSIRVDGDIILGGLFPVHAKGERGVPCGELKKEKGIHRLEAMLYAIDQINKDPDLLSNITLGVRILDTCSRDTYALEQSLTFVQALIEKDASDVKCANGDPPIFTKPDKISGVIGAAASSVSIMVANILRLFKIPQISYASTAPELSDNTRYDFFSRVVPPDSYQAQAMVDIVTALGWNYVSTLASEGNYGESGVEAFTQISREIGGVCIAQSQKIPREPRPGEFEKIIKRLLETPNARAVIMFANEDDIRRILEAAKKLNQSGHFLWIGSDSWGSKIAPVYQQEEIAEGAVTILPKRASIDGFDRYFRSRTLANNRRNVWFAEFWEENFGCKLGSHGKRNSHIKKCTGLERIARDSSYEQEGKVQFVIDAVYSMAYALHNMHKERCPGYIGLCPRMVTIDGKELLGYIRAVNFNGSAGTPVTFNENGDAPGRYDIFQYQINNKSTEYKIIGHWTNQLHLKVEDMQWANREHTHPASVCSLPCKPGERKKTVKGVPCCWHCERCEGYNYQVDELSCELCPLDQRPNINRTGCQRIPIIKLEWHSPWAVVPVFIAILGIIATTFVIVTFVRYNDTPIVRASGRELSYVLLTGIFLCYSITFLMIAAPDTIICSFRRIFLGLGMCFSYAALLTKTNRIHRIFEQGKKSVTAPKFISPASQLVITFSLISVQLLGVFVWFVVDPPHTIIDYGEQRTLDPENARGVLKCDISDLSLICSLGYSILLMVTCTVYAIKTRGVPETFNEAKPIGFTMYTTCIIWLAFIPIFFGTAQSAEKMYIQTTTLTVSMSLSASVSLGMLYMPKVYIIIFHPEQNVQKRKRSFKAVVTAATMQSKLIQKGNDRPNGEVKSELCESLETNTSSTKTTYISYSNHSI

SMILES	z-score
CN(C)S(=O)(=O)c1ccc(NC(=O)N2CCN(c3ccccc3)CC2)cc1	0.322
O=C(COc1cc(Cl)c(Cl)cc1Cl)NC(=O)Nc1ccc2c(c1)OCCO2	-0.118
CSc1nc2nccc(-c3ccc(-c4ccccc4)cc3)n2n1	-0.5
CCOC(=O)c1sc(N)nc1C(C)C	-4.56e-05
Cc1ccc(C)c(NC(=S)NNC(=O)c2csc3c2CCCC3)c1	active: 7.26
CCOC(=O)N1CCN(C(=O)NC2CCCCC2)CC1	0.782
CC(=O)Oc1ccc(N(C(C)=O)S(=O)(=O)c2cccs2)cc1	-0.202
CCOC(=O)N1CCC(N2Cc3cccc(C(=O)Nc4ccc(OC)c(OC)c4)c3C2=O)CC1	-0.721
Cc1cc(OC(=O)c2ccc(Cl)cc2)cc(=O)n1C	-0.527
CCCn1cnc2cc(NCc3cccc(OC)c3)ccc21	-0.0355
COc1ccccc1-c1nnc2sc(COc3ccc(Cl)cc3)nn12	-0.124
CCOC(=O)c1c(C)[nH]c2c1cc(O)c1ccccc12	active: 4.58
CC1(C)Oc2ccc3ccc(=O)oc3c2-c2cn[nH]c21	-0.305
CC(C)Cn1c(N)c(C(=O)CSc2nc3ccccc3n2C)c(=O)n(C)c1=O	-0.037
COCCN(C(=S)Nc1cc(C)cc(C)c1)C(C)c1cccnc1 (centres undefined)	-0.354
Cn1c2ccc(F)cc2c2ncn(CCN3CCOCC3)c(=O)c21	-0.252
CC(C)OC(=O)C1C2C=CC3(CN(C(C)c4ccc(Br)cc4)C(=O)C13)O2 (centres undefined)	0.295
COc1ccc(CCNC(=O)C2CCN(S(=O)(=O)c3c(C)noc3C)CC2)cc1OC	0.824
C=CCc1cc(C=O)cc(OC)c1OCc1c(Cl)cccc1Cl	-0.298
COc1ccc(/C=N/NC(=O)c2ccc3c(c2)OCCO3)cc1[N+](=O)[O-]	-0.012
Cc1nn(-c2ccc(F)cc2)c2nc(N)c(C#N)c(-c3cccs3)c12	0.056
C=CCN(C(=O)CSc1nc2[nH]ncc2c(=O)n1-c1ccccc1OC)c1ccccc1	-0.457
O=C(NCCSc1c[nH]c2ccccc12)c1ccc(Br)o1	-0.00412
O=C(NC1=NCCS1)c1ccc(Cl)c(S(=O)(=O)N2CCCCC2)c1	0.118
COc1ccc2ccccc2c1C1CC(=O)N2CN(Cc3ccco3)CSC2=C1C#N (centres undefined)	-0.0668
O=C(COc1ccc(S(=O)(=O)N2CCc3ccccc32)cc1Cl)NCc1ccccn1	0.627
CC(C)Oc1ccc(CNCC2(O)CCOC(C)(C)C2)cc1 (centres undefined)	0.977

SMILES	z-score
COc1ccccc1/C=N/NC1=NCCCCC1	-0.105
COc1cccc(C(=O)/C=C/Nc2ccc(S(=O)(=O)Nc3nc(C)cc(C)n3)cc2)c1	-0.0552
Cc1ccc(SCc2cn3cccnc3n2)cc1	0.687
COC(=O)c1ccc(NC(=O)Cc2ccc(C)cc2)cc1	-0.433
Oc1c(Br)cc(Cl)cc1C=Nc1ccccc1Br	-0.827
Cc1cc(C)c(COc2ccc(/C=N/n3c(C)n[nH]c3=S)cc2)c(C)c1	0.242
Cc1ccc(-n2nc(C)c3c(C)c(CCC(=O)NC(C)c4ccccc4)c(C)nc32)cc1 (centres undefined)	-0.13
O=C1CC(N2CCC(c3nc4ccccc4o3)CC2)C(=O)N1c1ccc(Cl)cc1 (centres undefined)	0.0454
Cn1cc(S(=O)(=O)N2CCN(Cc3ccccc3)CC2)c(=O)n(C)c1=O	0.108
O=C(Nc1ccnc(-c2cccnc2)n1)c1ccccc1Cl	-0.0168
CCN(CC)C(=O)c1cc(-c2ccc(Br)cc2)on1	1.48
Cc1cccc(N(CC(N)=O)C2SC(=O)NC2=O)c1 (centres undefined)	-0.0487
COc1ccc(CCn2nnnc2C(CC(C)C)N2CCC(C(N)=O)CC2)cc1OC (centres undefined)	-0.0829
O=C(OCc1ccccc1Cl)c1cccnc1Cl	-0.157
COc1ccc(N2CCN(C(=O)CN(c3ccc(Br)cc3)S(C)(=O)=O)CC2)cc1	0.0268
CSc1ccc(CNc2ccc(C)c(C)c2)cc1	-0.183
COc1ccc(F)cc1CN1CCN(c2cc(C)nc3c4c(C)cc(C)nc4nn23)CC1	-0.542
COc1cccc(C(=O)N(CN2CCCC2=O)c2ccccc2OC)c1	0.2
O=C(Nc1ccccc1)c1cccc(N2CCCC2=O)c1	-0.342
Cc1cc(C)n(-c2cc(N3CCN(S(=O)(=O)c4ccc(C)c(C)c4)CC3)ccc2[N+](=O)[O-])n1	-0.0583
Cc1cc(C)nc(N(C#N)Cc2ccccc2Cl)n1	-0.117
CCSc1nsc(SCC)c1C(N)=O	-0.0132
Cn1nccc1/C=C(/C#N)S(=O)(=O)c1ccccc1	-0.0393
Oc1ccc2[nH]ccc2c1	-0.478
CCNc1nc(NCC)nc(SCCOC(=O)c2ccccc2)n1	-0.297
CCC(=O)Nc1cc(C)c(NC(=O)C23CC4CC(CC(C4)C2)C3)cn1	0.0544
O=C1N/C(=N\N=C\c2cccnc2)SC1Cc1ccc(SC(F)F)cc1 (centres undefined)	-0.21
